Assay results taken from PubChem BioAssay AID504832 (National Center for Advancing Translational Sciences (NCATS), 2011).
Hit rate of the full screen: of about 310,000 compounds, about 18,000 (5.8%) were called active. The inconclusive results got no clear call from the source; some entries with a clear call stand among them for comparison. Calls come from the whole dose curve; as a rule, active = well fitted inhibition curve with a large enough effect; inconclusive = small, poorly fitted or top-dose-only effect, or another doubt; inactive = no such curve, though single readings can be large or run the other way. No potency is given beside an inconclusive call; the fits are too rough.
% is set by controls: 0 for no effect and ±100 for the full control effect; potency is the fitted concentration of half-maximal effect; tags give direction and shape of the fitted curve.

Test: Primary qHTS for delayed death inhibitors of the malarial parasite plastid, 48 hour incubation
Settings: P. falciparum luciferase growth in erythrocytes; series mostly up to 28.7 µM
Procedure, shortened: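 Cell-based growth assay: transgenic P. falciparum expressing firefly luciferase, cultured in red cells within RPMI 1640 containing 0.5% w/v Albumax, 24 mM bicarbonate and gentamycin. A drop in luciferase activity indicates inhibition.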
For `Cc1cccnc1NC(=O)c1c(O)c2ccccc2n(C)c1=O`, the Potency was “inactive”.
In the case of `CC1(C)CC(=O)C(C=NCCN2CCN(C(=O)CCl)CC2)=C(O)C1`, the Potency is reported as inconclusive [inhibitor, single point].
In the case of `CC1CCCC(NC(=O)CSc2nncs2)C1C` (stereo unspecified), the Potency is reported as “inactive”.
For `O=C(O)c1cc(-c2ccc(Cl)cc2)n(-c2cccc(Cl)c2)n1`, the Potency was “inactive”.
In the case of `Cn1c(=O)c2c(nc(N/N=C/c3c(O)n(C4CCCCC4)c(=S)[nH]c3=O)n2C)n(C)c1=O`, the Potency is reported as inconclusive [inhibitor, single point].
With `CN(CC(=O)Nc1ccccc1Br)C(=O)c1ccccc1Cc1ccccc1` the Potency was inconclusive [inhibitor, single point].
For `CCOC(=O)NNC(=O)C12CC3CC(CC(C3)C1)C2`, the Potency was inconclusive [inhibitor, partial curve, poor fit].
For `CN(C)C(=O)NC(Nc1cccc([N+](=O)[O-])c1)C(Cl)(Cl)Cl` (stereo unspecified), the Potency was inconclusive [inhibitor, single point].
For `Cc1cc(NC(=O)c2ccco2)c(=O)n(Cc2cccc(C(F)(F)F)c2)c1`, the Potency was “inactive”.
In the case of `COc1cc(C(=O)NCC(c2ccco2)N2CCOCC2)cc(OC)c1OC` (stereo unspecified), the Potency is reported as inconclusive [inhibitor, single point].
In the case of `Cc1nn2c(nc(N3CCCCC3)c3ccccc32)c1C=O`, the Potency is reported as active: 3.29 µM.
In the case of `O=C(CNc1ccc(C(F)(F)F)cc1)Nc1cccc(S(=O)(=O)N2CCCC2)c1`, the Potency is reported as inconclusive [inhibitor, single point].
In the case of `Cc1cc(SCc2cccc(Cl)c2)nc(=O)[nH]1`, the Potency is reported as “inactive”.
For `O=C(Nc1nc2ccc3ccccc3c2s1)c1ccc(N2CCCCC2)c([N+](=O)[O-])c1`, the Potency was inconclusive [inhibitor, partial curve].
In the case of `CCOC(CCn1ccc(O)c(Cc2ccc(Cl)cc2)c1=O)OCC`, the Potency is reported as inconclusive [inhibitor, single point].
In the case of `Cc1nc(SCc2ccc(F)cc2)c2oc3ccccc3c2n1`, the Potency is reported as “inactive”.
For `CCc1nc2sc3ccccc3c(=O)c2c(=O)n1CCOC`, the Potency was “inactive”.
With `Cc1sc2nc(CSc3ccccc3)nc(N3CCC(C(N)=O)CC3)c2c1C` the Potency was inconclusive [inhibitor, single point].
In the case of `COc1ccccc1CN(CC(=O)NCc1ccco1)C(=O)CNS(=O)(=O)c1ccc(C)cc1`, the Potency is reported as inconclusive [inhibitor, partial curve, poor fit].
With `CN(Cc1cccc(F)c1)C(=O)c1cc(S(=O)(=O)N2CCOCC2)ccc1N1CCCC1` the Potency was inconclusive [inhibitor, single point].
For `COc1cc(/C=C2/SC(=S)N(CC(=O)Nc3nc4ccccc4s3)C2=O)cc(OC)c1OC`, the Potency was inconclusive [inhibitor, full curve, poor fit].
In the case of `COc1cccc(NC(=O)c2cc(-c3ccccn3)nc3ccccc23)c1`, the Potency is reported as inconclusive [inhibitor, single point].
For `O=C(COc1ccccc1-c1ccccc1)NCCN1C(=O)S/C(=C\c2cccnc2)C1=O`, the Potency was inconclusive [inhibitor, single point].
For `COc1ccc(-n2nnnc2CNC(=O)C(=O)c2c[nH]c3ccccc23)cc1`, the Potency was inconclusive [inhibitor, single point].
For `CC(C)CC(=O)Nc1nnc(SCC(=O)Nc2nccs2)s1`, the Potency was “inactive”.
For `CN(C)CCNC(=O)COc1ccc(C23CC4CC(CC(C4)C2)C3)cc1`, the activity change, negative = inhibition was inactive: -4% [at 5.75 µM].
In the case of `CCCC(=O)C1=C(c2ccccc2)C(C#N)(C#N)C(C#N)=C1N`, the Potency is reported as “inactive”.
In the case of `Cc1ccc(NS(=O)(=O)c2ccccc2F)cc1S(=O)(=O)N1CCCCCC1`, the Potency is reported as inconclusive [inhibitor, single point].
In the case of `C=CCN1C=C2C(=O)C(C)(OC(=O)C3CCCC3)C(=O)C=C2C=C1c1ccsc1` (stereo unspecified), the Potency is reported as inconclusive [inhibitor, single point].
In the case of `COc1ccccc1CC(=O)N1CCN(c2ccccc2)CC1`, the Potency is reported as “inactive”.
With `CCN(CC)c1ccc(/C=N/NC(=O)c2nnn(-c3nonc3N)c2C(C)C)c(O)c1` the Potency was active: 3.7 µM.
For `Cc1[nH]c2ccccc2c1C(=O)CSc1cccc[n+]1[O-]`, the Potency was “inactive”.
With `Cc1ccc2nc(N(CCCN(C)C)C(=O)c3ccc(Br)s3)sc2c1` the Potency was inconclusive [inhibitor, single point].
With `CCOC(=O)c1oc2ccccc2c1CSc1nnnn1-c1ccc(C)cc1` the Potency was inconclusive [inhibitor, single point].
In the case of `CN1CCCC(=C(c2cccs2)c2cccs2)C1`, the Potency is reported as inconclusive [inhibitor, partial curve].
In the case of `Cc1ccc(NC(=O)CN(C)C(=O)CCC(=O)N2CCOCC2)cc1`, the Potency is reported as inconclusive [inhibitor, partial curve, poor fit].
For `Cc1ccc(Nc2nc(N)c([N+](=O)[O-])c(N3CCC(C)CC3)n2)cc1C`, the Potency was inconclusive [inhibitor, single point].
In the case of `O=C(O)/C=C/c1ccc2ccccc2n1`, the Potency is reported as “inactive”.
For `CN1CCN(c2ccccc2NC(=O)c2ccc(-c3ccc(Br)cc3)o2)CC1`, the Potency was active: 13.1 µM.
For `NS(=O)(=O)c1cccc(NC(=O)CSc2nn(-c3ccccc3)c(=S)s2)c1`, the Potency was active: 1.85 µM.
For `O=C(Nc1ccc(F)cc1F)N1CCN(CCc2ccccc2)CC1`, the Potency was active: 2.33 µM.
With `COc1ccc(/C=C(\NC(=O)c2ccc(C)cc2)C(=O)N2CCCCC2)cc1` the Potency was inconclusive [inhibitor, partial curve, poor fit].
With `O=C(NCC1CCCO1)c1ccc(S(=O)(=O)N2CCC(c3nc4ccc(Cl)cc4[nH]3)CC2)cc1` (stereo unspecified) the Potency was active: 13.1 µM.
For `CC(=O)Nc1ccc(NC(=O)C(C)OC(=O)c2ccc(-n3cnnn3)cc2)cc1` (stereo unspecified), the Potency was inconclusive [inhibitor, partial curve].
For `COc1ccc(C2CC(C)=NN2C=O)cc1OC` (stereo unspecified), the Potency was inconclusive [inhibitor, single point].
With `O=C1c2cccc3cc([N+](=O)[O-])cc(c23)C(=O)N1CC1CCCO1` (stereo unspecified) the Potency was inconclusive [inhibitor, single point].
In the case of `COC(=O)c1ccc(/C=C/c2c(-c3ccsc3)sc3ccccc23)cc1`, the Potency is reported as inconclusive [inhibitor, partial curve].
With `CCNC(=O)CSc1nnc(CN2CCCCCC2=O)n1-c1ccccn1` the Potency was inconclusive [inhibitor, full curve, poor fit].
With `O=C(CSc1nnc(-c2ccncc2)o1)N1CCCC1` the Potency was inconclusive [inhibitor, full curve, poor fit].
For `CCN(CC)CC(=O)N1c2ccccc2CCc2ccc(NC(=O)c3cc(OC)c(OC)c(OC)c3)cc21`, the Potency was active: 11.7 µM.
With `CC1=Nc2cc(C(=O)N3CCCC3)ccc2Sc2ccc(C)cc21` the Potency was active: 9.28 µM.
With `CC1CN(c2nc3c(c(=O)[nH]c(=O)n3C)n2Cc2ccccc2F)CC(C)O1` (stereo unspecified) the Potency was inconclusive [inhibitor, full curve, poor fit].
In the case of `CCc1ccc(C(=O)NNC(=O)c2cccc(S(=O)(=O)N3CCN(C)CC3)c2)cc1`, the Potency is reported as inconclusive [inhibitor, partial curve, poor fit].
With `COc1cccc(CN(CC2CCCO2)S(=O)(=O)c2ccc(-n3cnnn3)c(OC)c2)c1` (stereo unspecified) the Potency was inconclusive [inhibitor, partial curve].
For `Cc1cccc(/C=N/NC(=O)c2ccccc2OCc2cccc(Br)c2)n1`, the Potency was active: 14.7 µM.
In the case of `CCCOP(=O)(OCCC)C1(Nc2ccc(C)cc2)CCCCC1`, the Potency is reported as inconclusive [inhibitor, single point].
For `COc1ccc(C2=Nc3ccc(Br)cc3C(c3ccccc3)N2CC(=O)NN)cc1` (stereo unspecified), the Potency was active: 13.1 µM.
With `COc1ccc(C(=O)N2CCN(c3cnn(-c4ccccc4)c(=O)c3Cl)CC2)cc1` the Potency was inconclusive [inhibitor, single point].
For `Cn1c(-c2ccccc2)c(C(=O)CC#N)c2ccccc21`, the Potency was inconclusive [inhibitor, single point].
With `Cc1nonc1NC(=O)CSc1nnc(N)s1` the Potency was “inactive”.
For `O=C1Nc2ccc(F)cc2C12Nc1ccccc1-c1nnc(SCc3ccccc3F)nc1O2` (stereo unspecified), the Potency was “inactive”.
For `CCCCC/C=C/C1=CC(=O)C[C@H](c2ccc(OC)c(OC)c2)C1`, the Potency was inconclusive [inhibitor, single point].
In the case of `COc1ccc(CC(=O)NC2CC(C)(C)NC(C)(C)C2)cc1`, the Potency is reported as “inactive”.
For `COc1ccc2c(c1)CCc1cn[nH]c1-2`, the activity change, negative = inhibition was inactive: -5.75% [at 0.00184 µM].
In the case of `Cc1ccc(OCC(=O)Nc2sc3c(c2C#N)CCC3)cc1`, the Potency is reported as “inactive”.
With `Cc1ccc2cc(C3CC(c4cccs4)=NN3S(C)(=O)=O)c(Cl)nc2c1` (stereo unspecified) the Potency was inconclusive [inhibitor, single point].
For `COc1ccc(C(C)=O)cc1CS(=O)(=O)CC(=O)NCCc1c[nH]c2ccccc12`, the Potency was active: 5.22 µM.
In the case of `O=c1c2c(nc3c(-c4ccc(Cl)cc4)c[nH]n13)CCCC2`, the Potency is reported as active: 4.65 µM.
In the case of `COC(=O)[C@]1(CC(C)C)N[C@H](c2ccc(-c3ccc(OC)cc3)cc2)[C@@H]2C(=O)N(C)C(=O)[C@@H]21`, the Potency is reported as inconclusive [inhibitor, partial curve, poor fit].
In the case of `Cc1ccc(C(=O)OCC(=O)N2CCOCC2)cc1`, the Potency is reported as “inactive”.
In the case of `COc1ccc2cc(CCNC(=O)c3cccs3)c(=O)[nH]c2c1`, the Potency is reported as inconclusive [inhibitor, single point].
